# Experimental data reported in PMC11407943, “Cdc14 phosphatases use an intramolecular pseudosubstrate motif to stimulate and regulate catalysis” (The Journal of Biological Chemistry, 2024).
# Where two headings read alike, the source gives them in different places.
# Assay: Steady-state kinetics of Cdc14 enzyme variants toward DiFMUP
# [1] = DiFMUP, steady state, compared to parent/WT enzyme
molecule,measurement,setting,value
"ScCdc14^1-449: truncation of S. cerevisiae Cdc14 that retains the SLiCE motif (protein, left off: 6xHis, N-terminal, state not stated) MRRSVYLDNTIEFLRGRVYLGAYDYTPEDTDELVFFTVEDAIFYNSFHLDFGPMNIGHLYRFAVIFHEILNDPENANKAVVFYSSASTRQRANAACMLCCYMILVQAWTPHQVLQPLAQVDPPFMPFRDAGYSNADFEITIQDVVYGVWRAKEKGLIDLHSFNLESYEKYEHVEFGDFNVLTPDFIAFASPQEDHPKGYLATKSSHLNQPFKSVLNFFANNNVQLVVRLNSHLYNKKHFEDIGIQHLDLIFEDGTCPDLSIVKNFVGAAETIIKRGGKIAVHCKAGLGRTGCLIGAHLIYTYGFTANECIGFLRFIRPGMVVGPQQHWLYLHQNDFREWKYTTRISLKPSEAIGGLYPLISLEEYRLQKKKLKDDKRVAQNNIEGELRDLTMTPPSNGHGALSARNSSQPSTANNGSNSFKSSAVPQTSPGQPRKGQNGSNTIEDINNN",steady-state kinetics compared (in words),,nearly identical kinetics
"hCdc14AQ395A (protein, UniProt Q9UNH5 1-594, looked up, variant Q395A) Dual specificity protein …: MAAESGELIGACEFMKDRLYFATLRNRPKSTVNTHYFSIDEELVYENFYADFGPLNLAMVYRYCCKLNKKLKSYSLSRKKIVHYTCFDQRKRANAAFLIGAYAVIYLKKTPEEAYRALLSGSNPPYLPFRDASFGNCTYNLTILDCLQGIRKGLQHGFFDFETFDVDEYEHYERVENGDFNWIVPGKFLAFSGPHPKSKIENGYPLHAPEAYFPYFKKHNVTAVVRLNKKIYEAKRFTDAGFEHYDLFFIDGSTPSDNIVRRFLNICENTEGAIAVHCKAGLGRTGTLIACYVMKHYRFTHAEIIAWIRICRPGSIIGPQQHFLEEKQASLWVQGDIFRSKLKNRPSSEGSINKILSGLDDMSIGGNLSKTQNMERFGEDNLEDDDVEMKNGITAGDKLRALKSQRQPRTSPSCAFRSDDTKGHPRAVSQPFRLSSSLQGSAVTLKTSKMALSPSATAKRINRTSLSSGATVRSFSINSRLASSLGNLNAATDDPENKKTSSSSKAGFTASPFTNLLNGSSQPTTRNYPELNNNQYNRSSNSNGGNLNSPPGPHSAKTEEHTTILRPSYTGLSSSSARFLSRSIPSLQSEYVHY",change in KM (in words),,approximately equivalent decreases in both kcat and KM
same,change in kcat (in words),,approximately equivalent decreases in both kcat and KM
"ScCdc14^S429E (protein, UniProt Q00684 1-551, looked up, variant S429E) Tyrosine-protein phosphatase …: MRRSVYLDNTIEFLRGRVYLGAYDYTPEDTDELVFFTVEDAIFYNSFHLDFGPMNIGHLYRFAVIFHEILNDPENANKAVVFYSSASTRQRANAACMLCCYMILVQAWTPHQVLQPLAQVDPPFMPFRDAGYSNADFEITIQDVVYGVWRAKEKGLIDLHSFNLESYEKYEHVEFGDFNVLTPDFIAFASPQEDHPKGYLATKSSHLNQPFKSVLNFFANNNVQLVVRLNSHLYNKKHFEDIGIQHLDLIFEDGTCPDLSIVKNFVGAAETIIKRGGKIAVHCKAGLGRTGCLIGAHLIYTYGFTANECIGFLRFIRPGMVVGPQQHWLYLHQNDFREWKYTTRISLKPSEAIGGLYPLISLEEYRLQKKKLKDDKRVAQNNIEGELRDLTMTPPSNGHGALSARNSSQPSTANNGSNSFKSSAVPQTEPGQPRKGQNGSNTIEDINNNRNPTSHANRKVVIESNNSDDESMQDTNGTSNHYPKVSRKKNDISSASSSRMEDNEPSATNINNAADDTILRQLLPKNRRVTSGRRTTSAAGGIRKISGSIKK",change in KM (in words),[1],significant decrease in both kcat and KM
same,change in kcat (in words),[1],significant decrease in both kcat and KM
